# Data taken from article PMC12136788.
# Some of the results follow.
# B1: chr15:66840984:66840985:+_ENSG00000174442_ENST00000446801|hu_hu|motif|central (ssRNA)
# RNA: GGGAGUUCUACAGUCCGACGAUCCUAUUUUUUAAGUUUUCCCAAUACAGUUAAAGCUUUUGGGAUAAAGCUGUAUUUACGGAAAUGAUCCUGUUCUCAUUUGUGGUGCUCGUUCUCUUUGUCAUUUCAGAGCCCUUGCUAAGUCAACAGAGGAUUGAGCAUCA
# B2: chr8:101271117:101271118:-_ENSG00000034677_ENST00000519449|hu_mus|motif|central (ssRNA)
# RNA: GGGAGUUCUACAGUCCGACGAUCGCAAUCACUGGAGCCGUGACUACAGGACGUUCUCAUGCUUUCUAAGUCUGAGCAGCGGAAUUCAGAAAAAUGACUGGAGUGGGAAUCUGCUACAGACGGCAUGCUGUCACUGAGGGAUGGCAACAGAGGAUUGAGCAUCA
# B3: chr7:7679991:7679992:-_ENSG00000106399_ENST00000396682|hu_hu|hu_hu_hu_mus_False|8_98 (ssRNA)
# RNA: GGGAGUUCUACAGUCCGACGAUCUGGGAUGAAUCUUUUCCAGCCUCCCCACGAAGCACACGGGCCGGUCGAUAUACUGUGGUAACAUGCUGGCGUUGACGCGCGCUUUGGGGAGCUGCAUUAUGUCCACCAUGAUUCUGCCGCCAACAGAGGAUUGAGCAUCA
# B4: chr5:128440902:128440903:+_ENSG00000066583_ENST00000173527|hu_mus|hu_hu_hu_mus_True|78_78 (ssRNA)
# RNA: GGGAGUUCUACAGUCCGACGAUCUUGAACGGUGCUGCCAAGUCCUUUGGGGUAUUGUUCUGUUACAAUAACUGGAAUCCCUAAGAUCCGAGCUCCUUGCAACAGUCUCUGUCCCACACUAAUGAUGUCCCCAAAGUAUUUGAUCAACAGAGGAUUGAGCAUCA
# B5: chr3:185643329:185643330:-_ENSG00000136527_ENST00000456380|hu_hu|motif|central (ssRNA)
# RNA: GGGAGUUCUACAGUCCGACGAUCGACAUGGGAGAAUGGCUGUGGCUGUGCCGUCUACGAUAAUCUCGACUGUAAGACCUGCGGCGUGAUCGUCUAUGGGAGCGGGAGCGAGACCGUGACCGGGUAUAAUGCCUUCGGGAGCUUCAACAGAGGAUUGAGCAUCA
# B6: chr7:141438946:141438947:+_ENSG00000106028_ENST00000265304|hu_mus|hu_hu_hu_mus_True|8_88 (ssRNA)
# RNA: GGGAGUUCUACAGUCCGACGAUCGACGAAAUACCUGUAACACAGGUGAAACAUGGCUGGCUUCUGUUUUUCUUACAACCUAAUCUUUAGGCUUUUCCUAAAGGAAAGAAAGAAAAGAGAAAAAUGAGCAGGGGAUCAACUACACAACAGAGGAUUGAGCAUCA
# Biological target: T1, UNK ZnF1-3 (human, UniProt Q9C0B0 31-174)
# T1 sequence: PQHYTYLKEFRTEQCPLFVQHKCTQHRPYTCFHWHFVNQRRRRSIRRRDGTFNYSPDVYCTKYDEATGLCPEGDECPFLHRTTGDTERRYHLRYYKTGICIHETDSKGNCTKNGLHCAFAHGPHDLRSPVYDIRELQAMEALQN
# Assay: nsRBNS (natural sequence RNA bind-n-seq); RBNS binding buffer (assumed for nsRBNS): 25 mM Tris pH 7.5, 150 mM KCl, 3 mM MgCl2, 0.01% Triton X-100, 500 ug/ml BSA, 20 U/ml SUPERase-In, 4 C; UNK is unkempt and MSI1 is Musashi-1; names of the RNAs are library labels; protein concentration not given here; high values mean tight binding
row,Binder,binding signal [enrichment R]
1,B1,0.478
2,B2,1.45
3,B3,0.517
4,B4,0.449
5,B5,1.5
6,B6,0.856
